Patent US20250064844A1 (Emory University, priority 2020, published 2025)
Where two headings read alike, the source gives them in different places.

Assays:
[1] = dog, in vivo, 140 mg/kg
[2] = ICR (CD-1), mouse, in vivo, 180 mg/kg
[3] = human, in vivo
[4] = clinical; settings: human, in vivo, po, 1600 mg
[5] = dog, in vivo

Structure (SMILES) | parent prodrug observed in plasma [1] | parent prodrug observed in plasma [2] | EIDD-2801 concentrations as share of EIDD-1931 concentrations [3] | EIDD-2801 detected in the urine, share of the dose [3] | Cmax ([4]; mean Cmax of EIDD-2801 (prodrug) in plasma) | Tmax ([4]; median tmax of EIDD-2801 (prodrug) in plasma) | dose-limiting toxicity [5]
CC(C)C(=O)OC[C@H]1O[C@@H](n2ccc(NO)nc2=O)[C@H](OC(=O)C(C)C)[C@@H]1OC(=O)C(C)C [EIDD-2800] | No EIDD-2800 (parent) was observed at any time point | No EIDD-2800 (parent) was observed at any time point |  |  |  |  | 
CC(C)C(=O)OC[C@H]1O[C@@H](n2ccc(NO)nc2=O)[C@H](O)[C@@H]1O [EIDD-2801] |  |  | approximately 0.2% | approximately 0.002% | ≤ 13.2 ng/mL | 15 to 45 min | bone marrow toxicity
